Experimental data from PubChem BioAssay (NCATS).
Values joined by “and” are separate entries in the source; they are usually repeats but may differ in a detail not shown here. Identical values can stand only once. The inconclusive results got no clear call from the source; some entries with a clear call stand among them for comparison. Potencies beside an inconclusive call are fits to weak or partial responses and may not hold up. Active and inactive are the calls of the source. The call rests on the fitted dose curve; in most records, active means well fitted curve in the direction sought with a large enough effect; inconclusive means small, poorly fitted or top-dose-only effect, or another doubt; inactive means no such curve, though single readings can be large; an effect the other way counts as inactive or inconclusive.

Columns and labels:
[1] = biological target: Ubiquitin carboxyl-terminal hydrolase 1 (Homo sapiens) (UniProt O94782); assay: Inhibitors of USP1/UAF1: Pilot qHTS (AID 504865);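 further: rhodamine fluorescence freed from ubiquitin-rhodamine substrate followed over time; nearly all actives have a fitted effect of over 35% in size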
Chain of UniProt O94782 (O94782 whole entry, looked up): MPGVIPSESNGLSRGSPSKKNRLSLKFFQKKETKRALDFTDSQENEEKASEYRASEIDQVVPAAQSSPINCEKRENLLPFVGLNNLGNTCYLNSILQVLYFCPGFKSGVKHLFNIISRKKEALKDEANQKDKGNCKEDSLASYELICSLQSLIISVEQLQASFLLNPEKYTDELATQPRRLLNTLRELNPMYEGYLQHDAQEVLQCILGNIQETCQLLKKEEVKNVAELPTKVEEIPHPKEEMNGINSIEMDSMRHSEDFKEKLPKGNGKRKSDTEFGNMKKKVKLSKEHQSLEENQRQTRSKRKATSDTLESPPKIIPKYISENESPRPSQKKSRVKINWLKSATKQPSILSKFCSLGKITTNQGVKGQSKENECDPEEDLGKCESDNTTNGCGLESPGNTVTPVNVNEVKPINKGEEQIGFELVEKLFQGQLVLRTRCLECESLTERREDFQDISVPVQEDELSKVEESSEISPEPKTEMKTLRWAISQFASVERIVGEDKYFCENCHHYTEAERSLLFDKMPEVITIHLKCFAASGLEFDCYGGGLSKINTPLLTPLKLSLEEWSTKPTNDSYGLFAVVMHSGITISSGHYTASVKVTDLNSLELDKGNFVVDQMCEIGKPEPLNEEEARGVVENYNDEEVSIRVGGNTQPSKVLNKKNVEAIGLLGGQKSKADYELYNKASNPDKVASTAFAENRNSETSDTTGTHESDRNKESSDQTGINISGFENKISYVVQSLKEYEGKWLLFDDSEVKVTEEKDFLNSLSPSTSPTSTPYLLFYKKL
How it was run: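 Enzyme-free wells gave the negative control, while test wells held 1nM USP1/UAF1 preincubated with compound for 15 min at room temperature. Ub-Rho at 150nM final started the reaction, and fluorescence at 480/540 nm was recorded kinetically.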

[2] = qHTS for Inhibitors of ATXN expression: Validation of Cytotoxic Assay (AID 588349)
How it was run: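 HEK293 cells treated with titrated compound for 72 hr at 37 degrees C; viability read as intracellular ATP by CellTiter Glo luminescence.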

[3] = qHTS for Inhibitors of ATXN expression: Validation (AID 588378); further: nearly all actives have a fitted effect of over 75% in size
How it was run: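 After a 2 h attachment and 24 h compound incubation, HEK293-ATXN2-FFLuc wells are read for fluorescence at 405 nm excitation/525 nm emission as a viability measure, then for Bright-Glo luminescence reflecting ATXN2 expression.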
Potency means the concentration at half of the fitted maximal effect; tags describe the fitted curve by direction and shape.

| Compound | Potency [1] | Potency [2] | Potency [3] |
| --- | --- | --- | --- |
| CN(C)CCCN1c2ccccc2C(C)(C)c2ccccc21 | inconclusive: 63.1 µM [inhibitor, partial curve, poor fit] |  |  |
| COc1cccc2c1C(=O)c1c(O)c3c(c(O)c1C2=O)C[C@@](O)(C(C)=O)C[C@@H]3O[C@H]1C[C@H](N)[C@H](O)[C@H](C)O1 | active: 44.7 µM and active: 39.8 µM |  |  |
| Cc1c(NC(=O)c2cccnc2)c(=O)n(-c2ccccc2)n1C | inconclusive: 39.8 µM [inhibitor, partial curve, poor fit] |  |  |
| CSc1ccc2c(c1)N(CCC1CCCCN1C)c1ccccc1S2 (configuration not stated) | inconclusive: 56.2 µM [inhibitor, partial curve, poor fit] and inconclusive: 50.1 µM [inhibitor, partial curve] | active: 25.1 µM | inconclusive: 17.8 µM [inhibitor, partial curve, poor fit] |
| CCN(CCCCOC(=O)c1ccc(OC)c(OC)c1)C(C)Cc1ccc(OC)cc1 (configuration not stated) | inconclusive: 89.1 µM [inhibitor, partial curve, poor fit] |  |  |
| CCC(=O)c1ccc2c(c1)N(CCCN(C)C)c1ccccc1S2 | inconclusive: 79.4 µM [inhibitor, partial curve, poor fit] | inconclusive: 28.2 µM [cytotoxic, single point] | inconclusive: 11.2 µM [inhibitor, partial curve] |
| Cc1ccc(C(=O)C(C)CN2CCCCC2)cc1 (configuration not stated) | inactive |  |  |
| O=[N+]([O-])c1ccc(O)c2ncccc12 | inconclusive: 79.4 µM [inhibitor, partial curve] |  |  |
